Among the data in PubChem BioAssay AID1745853 (National Center for Advancing Translational Sciences (NCATS), 2022) are activity change, negative = inhibition values, retold here.

What all share (test): Primary Screen for Target Class Profiling of Small Molecule Inhibitors of Methyltransferases
In experiment [1] the target is Glycine N-methyltransferase (Homo sapiens) (UniProt Q14749). Particulars: purified enzyme, MTase-Glo SAH luminescence; measured here: GNMT inhibition; at 40 µM; stronger effect = lower value. A digest of the protocol:
(§1)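 Each enzyme was reacted with SAM and its substrate, with compounds tested once at 40 uM; SAH formed was read by MTase-Glo luminescence.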

In experiment [2] the target is Guanidinoacetate N-methyltransferase (Homo sapiens) (UniProt Q14353). The note with it: purified enzyme, MTase-Glo SAH luminescence; measured here: GAMT inhibition; at 40 µM; stronger effect = lower value. Put shortly: as §1
Experiment [3] deals with Histamine N-methyltransferase (Homo sapiens) (UniProt P50135). Particulars: purified enzyme, MTase-Glo SAH luminescence; measured here: HNMT inhibition; at 40 µM; stronger effect = lower value. A digest of the protocol:
as §1

For experiment [4], the target named is Nicotinamide N-methyltransferase (Homo sapiens) (UniProt P40261). Particulars: purified enzyme, MTase-Glo SAH luminescence; measured here: NNMT inhibition; at 40 µM; stronger effect = lower value. A digest of the protocol:
as §1

Experiment [5] concerns the target Phenylethanolamine N-methyltransferase (Homo sapiens) (UniProt P11086). Particulars: purified enzyme, MTase-Glo SAH luminescence; measured here: PNMT inhibition; at 40 µM; stronger effect = lower value. Put shortly:
as §1

Where “and” joins values, the source holds several entries; their conditions need not be identical. Equal entries are not always repeated. The list shows a part of the results. Shown are side measurements of this screen, not its main read-out; they come without a call. Square brackets hold non-standard residues; d marks the D form. Peptide text beside a SMILES is read from it. * marks the point of attachment. Dolaproine = CO[C@@H]([C@@H]1CCCN1)[C@@H](C)C(=O)O; Dil = CC[C@H](C)[C@H](NC)[C@@H](CC(=O)O)OC; Doe = c1ccc(C[C@H](N*)c2nccs2)cc1; Aib = CC(C)(N)C(=O)O
On the % scale 0 is the no-effect control and ±100 the full control effect.

For `COC1CC(O[C@H]2CC[C@@]3(C)C(CCC4C3CC[C@]3(C)C(C5=CC(=O)OC5)CCC43O)C2)OC(C)C1OC1OC(COC2OC(CO)C(O)C(O)C2O)C(O)C(O)C1O` (some centres undefined), the activity change, negative = inhibition in experiment [1] is -4.95%; in experiment [2], -11.4%; in experiment [3] it was 2.04%; in experiment [4], -19%; in experiment [5], -5.26%.

Consider `CC(N[C@H]1C[C@H]1c1ccccc1)c1ccc2c(c1)OCCO2` (some centres undefined), for which the activity change, negative = inhibition was -5% and -4.15% in experiment [1]; 4.47% and -3.22% in experiment [3]; -42% in experiment [4]; -32.7% in experiment [5].

As for `CCC1NC(=O)C2C(Cl)C(Cl)CN2C(=O)C(CC)NC(=O)CC(c2ccccc2)NC(=O)C(CO)NC1=O` (centres undefined), the activity change, negative = inhibition is -3.44% in experiment [1]; 4.79% in experiment [2]; 8.77% in experiment [3]; -8.16% in experiment [4]; 1.64% in experiment [5].

Turning to `COc1cc(NC(=O)N2Cc3ccccc3-n3cccc3C2c2ccc(C)cc2)cc(OC)c1` (centres undefined), the activity change, negative = inhibition in experiment [1] came out at 12.5%; in experiment [2], 0%; in experiment [3], 9.8%; in experiment [4], 9.75%; in experiment [5], 6.41%.

Take `C=C(C)[C@H]1Cc2c(ccc3c2O[C@@H]2COc4cc(OC)c(OC)cc4[C@@H]2C3=O)O1`: the activity change, negative = inhibition is -19.8% in experiment [1]; -3.47% in experiment [2]; -6.95% in experiment [3]; -15.9% in experiment [4]; -4.57% in experiment [5].

For the compound `COC(=O)C1=CCCN(C)C1`, the activity change, negative = inhibition in experiment [1] came to 4.83%; in experiment [2], 13.1%; in experiment [3], 4.54%; in experiment [4], 1.71%; in experiment [5], 11.6%.

On to `Fc1ccc(C(OCCN2CCN(CCCc3ccccc3)CC2)c2ccc(F)cc2)cc1`, for which the activity change, negative = inhibition in experiment [1] is 2.69%; in experiment [2] it was 11.1%; in experiment [3], -10.2%; in experiment [4], -8.44%; in experiment [5], -0.916%.

As for `CC[C@H](C)[C@@H]([C@@H](CC(=O)N1CCC[C@H]1[C@H](OC)[C@@H](C)C(=O)N[C@@H](Cc1ccccc1)c1nccs1)OC)N(C)C(=O)[C@@H](NC(=O)C(C)(C)N)C(C)C` (H-[Aib]V[Dil][Dolaproine]-Doe), the activity change, negative = inhibition in experiment [1] is 1.72%; in experiment [2] it was 3.79%; in experiment [3] it was 6.04%; in experiment [4] it was -8.84%; in experiment [5] it was 4.68%.

For the compound `C=C1[C@@H](C)[C@H]2[C@H](Cc3ccccc3)NC(=O)[C@]23[C@H](OC(C)=O)/C=C/[C@](C)(O)C(=O)[C@@H](C)C/C=C/[C@H]3[C@@H]1O`, the activity change, negative = inhibition is 0.976% in experiment [1]; 3.5% in experiment [2]; 10.2% in experiment [3]; -12.6% in experiment [4]; 6.36% in experiment [5].

Take `COc1cc2c(cc1OC)[C@@]13CCN4CC5=CCO[C@H]6CC(=O)N2[C@H]1[C@H]6[C@H]5C[C@H]43`: the activity change, negative = inhibition in experiment [1] was 0%; in experiment [2] it was 4.26%; in experiment [3], 6.3%; in experiment [4] it was -8.65%; in experiment [5], -2.5%.

On to `COC(=O)c1ccc(Cl)cc1NC(=O)N1Cc2ccccc2-n2cccc2C1C` (centres undefined), for which the activity change, negative = inhibition in experiment [1] is 2.79%; in experiment [2], 4.9%; in experiment [3] it was -1.31%; in experiment [4] it was -0.37%; in experiment [5], 3.85%.

Take `CC(=O)OC[C@]12C[C@H](O)C(C)=C[C@H]1O[C@@H]1[C@H](O)[C@@H](OC(C)=O)[C@@]2(C)[C@]12CO2`: the activity change, negative = inhibition in experiment [1] is 0%; in experiment [2] it was -11.3%; in experiment [3], -1.36%; in experiment [4], -23.1%; in experiment [5], -1.5%.

In the case of `C=C(CO)C(=O)O[C@H]1C/C(C)=C/CC/C(CO)=C/[C@H]2OC(=O)C(=C)[C@H]12`, the activity change, negative = inhibition in experiment [1] was 0%; in experiment [2] it was 3.92%; in experiment [3], 9.46%; in experiment [4] it was -4.49%; in experiment [5], 6.2%.

Consider `COc1cccc([C@@H]2CCN(Cc3[nH]c4ccccc4c3C)C[C@H]2O)c1`, for which the activity change, negative = inhibition was -2.48% in experiment [1]; 1.2% in experiment [2]; -0.722% in experiment [3]; 3.63% in experiment [4]; -0.809% in experiment [5].

`NNC(=O)c1ccc(O)cc1`: the activity change, negative = inhibition in experiment [1] was 5.74%; in experiment [2], 14.2%; in experiment [3] it was 8.32%; in experiment [4] it was -2.53%; in experiment [5] it was 2.43%.

Consider `COC(=O)[C@@H](N)CCCN=C(N)N[N+](=O)[O-]`, for which the activity change, negative = inhibition in experiment [1] is 2.42%; in experiment [2], 8.93%; in experiment [3], 3.95%; in experiment [4], -0.323%; in experiment [5] it was 10.5%.

Turning to `COc1ccc(C2c3cccn3-c3ccccc3CN2C(=O)Nc2ccc(F)cc2F)cc1` (centres undefined), the activity change, negative = inhibition was 12.6% in experiment [1]; 0% in experiment [2]; 8.9% in experiment [3]; 6.18% in experiment [4]; 4.67% in experiment [5].

Regarding `COc1ccccc1NC(=O)N1Cc2ccccc2-n2cccc2C1C(C)C` (centres undefined), the activity change, negative = inhibition in experiment [1] is -7.12%; in experiment [2], 4.73%; in experiment [3], 7.29%; in experiment [4], 1.38%; in experiment [5], 4.94%.

On to `O=C1N(Cc2ccccn2)C[C@H]2CN(Cc3nccs3)CCN12`, for which the activity change, negative = inhibition in experiment [1] was -4.11%; in experiment [2], -7.59%; in experiment [3] it was -1.27%; in experiment [4], -7.14%; in experiment [5], -4.8%.

Consider `COCC(=O)NC[C@H]1C[C@@H]2CCN1C[C@@H]2CN1CCCCC1`, for which the activity change, negative = inhibition in experiment [1] was 0.132%; in experiment [2], 0.19%; in experiment [3], 2.15%; in experiment [4] it was -0.432%; in experiment [5], 13.1%.

As for `CCOCCCNC(=O)N1Cc2ccccc2-n2cccc2C1c1ccccc1` (centres undefined), the activity change, negative = inhibition in experiment [1] is 4.56%; in experiment [2], 0.653%; in experiment [3], -5.42%; in experiment [4] it was 2.63%; in experiment [5], 5.89%.

Turning to `COC1CC(OC2CCC3(C=O)C(CCC4C3CCC3(C)C(C5=CC(=O)OC5)CCC43O)C2)OC(C)C1OC1OC(CO)C(O)C(O)C1O` (centres undefined), the activity change, negative = inhibition in experiment [1] is 4.69%; in experiment [2], 5.71%; in experiment [3], 11.8%; in experiment [4], -6.56%; in experiment [5], 5.47%.

On to `NCCCP(=O)(O)O`, for which the activity change, negative = inhibition in experiment [1] is -9.3%; in experiment [2] it was 2.1%; in experiment [3], -1.64%; in experiment [4] it was -8.43%; in experiment [5] it was 5.39%.

On to `CNCCc1c[nH]c2ccc(O)cc12`, for which the activity change, negative = inhibition in experiment [1] was -13.5%; in experiment [2], 8.46%; in experiment [3], -20.5%; in experiment [4], -5.32%; in experiment [5] it was -1.35%.

Regarding `Cc1ccc(C)c(CC(=O)N2CCN(CCO)CC(O)C2)c1` (centres undefined), the activity change, negative = inhibition in experiment [1] was -2.7%; in experiment [2], -4.21%; in experiment [3] it was -1.68%; in experiment [4], -6.3%; in experiment [5], -6.26%.

On to `CCCN(CCC)[C@@H]1CCc2ccc3[nH]c(C#N)cc3c2C1`, for which the activity change, negative = inhibition was 4.17% in experiment [1]; 6.93% in experiment [2]; -83.3% in experiment [3]; -13.1% in experiment [4]; 2.42% in experiment [5].

As to `COc1ccc(NC(=O)N2Cc3ccccc3-n3cccc3C2c2cccc(Cl)c2)cc1OC` (centres undefined), the activity change, negative = inhibition was 4.69% in experiment [1]; 1.25% in experiment [2]; -0.286% in experiment [3]; 4.8% in experiment [4]; 5.87% in experiment [5].

`CCc1ccc(NC(=O)N2Cc3ccccc3-n3cccc3C2c2ccc(N(C)C)cc2)cc1` (centres undefined): the activity change, negative = inhibition in experiment [1] was found to be 4.35%; in experiment [2] it was 5.27%; in experiment [3] it was 2.85%; in experiment [4] it was 2.35%; in experiment [5], 2.34%.

On to `COc1ccc(C2c3cccn3-c3ccccc3CN2C(=O)Nc2ccc3c(c2)OCCO3)cc1` (centres undefined), for which the activity change, negative = inhibition in experiment [1] is 7.26%; in experiment [2], 1.78%; in experiment [3] it was -3.52%; in experiment [4], -6.09%; in experiment [5] it was -2.57%.
